Source: patent publication US8304419B2, “Chemical compounds” (priority 2007, dated 2012)

What was measured:
Test in all cases: microbe, parasite or virus in culture
HIV-1 K103N RT mutant = conditions: Human immunodeficiency virus 1, HeLa, read-out: IC50 against K103N, HeLa cell assay
HIV-1 V106A RT mutant = conditions: Human immunodeficiency virus 1, HeLa, read-out: IC50 against V106A, HeLa cell assay
HIV-1 Y181C RT mutant = conditions: Human immunodeficiency virus 1, HeLa, read-out: IC50 against Y181C, HeLa cell assay
HIV-1 Y188L RT mutant = conditions: Human immunodeficiency virus 1, HeLa, read-out: IC50 against Y188L

Measured: IC50

CCc1cc(C#N)cc(Oc2c(Cl)ccc(CNC(=O)c3[nH]cnc3Cl)c2F)c1 [Example 148, 4-chloro-N-({4-chloro-3-[(3-cyano-5-ethylphenyl)oxy]-2-fluorophenyl}methyl)-1H-imidazole-5-carboxamide]
< 10 nM: all assays above

CCc1cc(C#N)cc(Oc2c(Cl)ccc(CNC(=O)c3[nH]c(C)nc3Br)c2F)c1 [Example 149, 4-bromo-N-({4-chloro-3-[(3-cyano-5-ethylphenyl)oxy]-2-fluorophenyl}methyl)-2-methyl-1H-imidazole-5-carboxamide]
< 10 nM: all assays above

N#Cc1cc(Br)cc(Oc2c(Cl)ccc(CNC(=O)c3[nH]cnc3Cl)c2F)c1 [Example 150, N-({3-[(3-bromo-5-cyanophenyl)oxy]-4-chloro-2-fluorophenyl}methyl)-4-chloro-1H-imidazole-5-carboxamide]
< 10 nM: all assays above

CCCc1cc(C#N)cc(Oc2c(Cl)ccc(CNC(=O)c3[nH]cnc3Cl)c2F)c1 [Example 151, 4-chloro-N-({4-chloro-3-[(3-cyano-5-propylphenyl)oxy]-2-fluorophenyl}methyl)-1H-imidazole-5-carboxamide]
< 10 nM: all assays above

N#Cc1cc(Oc2c(Cl)ccc(CNC(=O)c3[nH]cnc3Cl)c2F)cc(C2CC2)c1 [Example 152, 4-chloro-N-({4-chloro-3-[(3-cyano-5-cyclopropylphenyl)oxy]-2-fluorophenyl}methyl)-1H-imidazole-5-carboxamide]
< 10 nM: all assays above

C=CCc1cc(C#N)cc(Oc2c(Cl)ccc(CNC(=O)c3[nH]cnc3Cl)c2F)c1 [Example 156, 4-chloro-N-[(4-chloro-3-{[3-cyano-5-(2-propen-1-yl)phenyl]oxy}-2-fluorophenyl)methyl]-1′-1H-imidazole-5-carboxamide]
< 10 nM: all assays above

N#Cc1cc(CC2CC2)cc(Oc2c(Cl)ccc(CNC(=O)c3[nH]cnc3Cl)c2F)c1 [Example 157, 4-chloro-N-[(4-chloro-3-{[3-cyano-5-(cyclopropylmethyl)phenyl]oxy}-2-fluorophenyl)methyl]-1H-imidazole-5-carboxamide]
< 10 nM: all assays above

C=C(C)c1cc(C#N)cc(Oc2c(Cl)ccc(CNC(=O)c3[nH]cnc3Cl)c2F)c1 [Example 158, 4-chloro-N-[(4-chloro-3-{[3-cyano-5-(1-methylethenyl)phenyl]oxy}-2-fluorophenyl)methyl]-1H-imidazole-5-carboxamide]
< 10 nM: all assays above

CC(C)c1cc(C#N)cc(Oc2c(Cl)ccc(CNC(=O)c3[nH]cnc3Cl)c2F)c1 [Example 159, 4-chloro-N-[(4-chloro-3-{[3-cyano-5-(1-methylethyl)phenyl]oxy}-2-fluorophenyl)methyl]-1H-imidazole-5-carboxamide]
< 10 nM: all assays above

N#Cc1cc(Cl)cc(Oc2c(Cl)ccc(CNC(=O)c3[nH]ccc3Br)c2F)c1 [Example 204, 3-bromo-N-({4-chloro-3-[(3-chloro-5-cyanophenyl)oxy]-2-fluorophenyl}methyl)-1H-pyrrole-2-carboxamide]
< 10 nM: all assays above

N#Cc1cc(Cl)cc(Oc2c(Cl)ccc(CNC(=O)c3[nH]c(N)nc3Cl)c2F)c1 [Example 230, 2-amino-4-chloro-N-({4-chloro-3-[(3-chloro-5-cyanophenyl)oxy]-2-fluorophenyl}methyl)-1H-imidazole-5-carboxamide trifluoroacetate]
< 10 nM: all assays above

Cc1nc(Cl)c(C(=O)NCc2ccc(Br)c(Oc3cc(Cl)cc(C#N)c3)c2F)[nH]1 [Example 231, N-({4-bromo-3-[(3-chloro-5-cyanophenyl)oxy]-2-fluorophenyl}methyl)-4-chloro-2-methyl-1H-imidazole-5-carboxamide trifluoroacetate]
< 10 nM: all assays above

Cc1nc(Br)c(C(=O)NCc2ccc(Br)c(Oc3cc(Cl)cc(C#N)c3)c2F)[nH]1 [Example 233, 4-bromo-N-({4-bromo-3-[(3-chloro-5-cyanophenyl)oxy]-2-fluorophenyl}methyl)-2-methyl-1H-imidazole-5-carboxamide]
< 10 nM: all assays above

Cc1nc(Br)c(C(=O)NCc2cc(Br)c(Br)c(Oc3cc(Cl)cc(C#N)c3)c2F)[nH]1 [Example 234, 4-bromo-N-({4,5-dibromo-3-[(3-chloro-5-cyanophenyl)oxy]-2-fluorophenyl}methyl)-2-methyl-1H-imidazole-5-carboxamide trifluoroacetate]
< 10 nM: all assays above

N#Cc1cc(Cl)cc(Oc2c(Cl)ccc(CNC(=O)c3[nH]c(N)nc3Br)c2F)c1 [Example 235, 2-amino-4-bromo-N-({4-chloro-3-[(3-chloro-5-cyanophenyl)oxy]-2-fluorophenyl}methyl)-1H-imidazole-5-carboxamide trifluoroacetate]
< 10 nM: all assays above

N#Cc1cc(Cl)cc(Oc2c(Br)ccc(CNC(=O)c3[nH]c(N)nc3Br)c2F)c1 [Example 237, 2-amino-4-bromo-N-({4-bromo-3-[(3-chloro-5-cyanophenyl)oxy]-2-fluorophenyl}methyl)-1H-imidazole-5-carboxamide trifluoroacetate]
< 10 nM: all assays above

N#Cc1cc(Cl)cc(Oc2c(Br)ccc(CNC(=O)c3nc(N)[nH]c3Cl)c2F)c1 [Example 239, 2-amino-N-({4-bromo-3-[(3-chloro-5-cyanophenyl)oxy]-2-fluorophenyl}methyl)-4-chloro-1H-imidazole-5-carboxamide]
< 10 nM: all assays above

Cc1cc(C#N)cc(Oc2c(Br)ccc(CNC(=O)c3[nH]c(N)nc3Cl)c2F)c1 [Example 240, 2-amino-N-({4-bromo-3-[(3-cyano-5-methylphenyl)oxy]-2-fluorophenyl}methyl)-4-chloro-1H-imidazole-5-carboxamide trifluoroacetate]
< 10 nM: all assays above

N#Cc1cc(Cl)cc(Oc2c(Br)ccc(CNC(=O)c3[nH]c(CO)nc3Cl)c2F)c1 [Example 241, N-({4-bromo-3-[(3-chloro-5-cyanophenyl)oxy]-2-fluorophenyl}methyl)-4-chloro-2-(hydroxymethyl)-1H-imidazole-5-carboxamide]
< 10 nM: all assays above

Counter-ions that a name gives are not always drawn.
